According to a collection of fitness landscapes (doi:10.1016/j.celrep.2020.107928):
Whole data set: some 81,000 sequences, median “one-hybrid fitness for binding NBS DNA” near -0.1, cut for the highest 2% near 0.36. This is one part of the list.

B1: Caulobacter ParB omega fusion; a variant is named by its letters at X, in order, B8GW30 (parent)
chain: MESVVVGEPGMSEGRRGLGRGLSALLGEVDAAPAQAPGEQLGGSREAPIEILQRNPDQPRRTFREEDLEDLSNSIREKGVLQPILVRPSPDTAGEYQIVAGERAWRAAQRAGLKTVPIMVRELDDLAVLEIGIIENVQRADLNVLEEALSYKVLMEKFERTQENIAQTIGKSXSHVANXMRLLXLPDEVQSYLVSGELTAXHARAIAAAADPVALAKQIIEGGLSVRETEALARKAPNLSAGKSKGGRPPRVKDTDTQALESDLSSVLGLDVSIDHRGSTGTLTITYATLEQLDDLCNRLTRGI

Variants of: B1
Experiment: one-hybrid fitness for binding NBS DNA (the Noc-binding site; scaled: cognate 1, non-cognate 0); higher = stronger binding
Conditions: with NBS DNA site
How it was run: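 Pre- and post-selection plasmids were Illumina-sequenced, three replicate libraries were pooled, and any variant with under 10 reads was removed. The libraries were Caulobacter ParB with four specificity codons randomised, selected in E. coli USO through a HIS3 reporter whose site is 19 bp from the promoter. Cells grew 48 hours at 37°C on M9 without histidine, with 0.1 mM IPTG and 5 mM 3-AT. Fitness is the log change in variant-to-wild-type read ratio, rescaled against cognate and non-cognate.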
For QRFG, the “one-hybrid fitness for binding NBS DNA” value was 0.249.
For ENYW, the “one-hybrid fitness for binding NBS DNA” value was no more than 0.2.
For QHNI, the “one-hybrid fitness for binding NBS DNA” value was no more than 0.2.
FHSF was tested, and the “one-hybrid fitness for binding NBS DNA” value was no more than 0.2.
For TEMV, the “one-hybrid fitness for binding NBS DNA” value was no more than 0.2.
PGMS was tested, and the “one-hybrid fitness for binding NBS DNA” value was no more than 0.2.
For QGVN, the “one-hybrid fitness for binding NBS DNA” value was no more than 0.2.
For NVAC, the “one-hybrid fitness for binding NBS DNA” value was no more than 0.2.
In the case of GQQF, the “one-hybrid fitness for binding NBS DNA” value is reported as no more than 0.2.
With SARM the “one-hybrid fitness for binding NBS DNA” value was no more than 0.2.
In the case of HYRT, the “one-hybrid fitness for binding NBS DNA” value is reported as no more than 0.2.
For WGSL, the “one-hybrid fitness for binding NBS DNA” value was no more than 0.2.
For AAQT, the “one-hybrid fitness for binding NBS DNA” value was no more than 0.2.
With DATE the “one-hybrid fitness for binding NBS DNA” value was no more than 0.2.
With YCSS the “one-hybrid fitness for binding NBS DNA” value was no more than 0.2.
VILG was tested, and the “one-hybrid fitness for binding NBS DNA” value was no more than 0.2.
In the case of TGVS, the “one-hybrid fitness for binding NBS DNA” value is reported as no more than 0.2.
In the case of YCFS, the “one-hybrid fitness for binding NBS DNA” value is reported as no more than 0.2.
GLDN was tested, and the “one-hybrid fitness for binding NBS DNA” value was no more than 0.2.
In the case of AHFG, the “one-hybrid fitness for binding NBS DNA” value is reported as no more than 0.2.
ESRH was tested, and the “one-hybrid fitness for binding NBS DNA” value was no more than 0.2.
With RKQN the “one-hybrid fitness for binding NBS DNA” value was no more than 0.2.
QMRR was tested, and the “one-hybrid fitness for binding NBS DNA” value was 1.02.
With IRTT the “one-hybrid fitness for binding NBS DNA” value was 0.274.
CEHT was tested, and the “one-hybrid fitness for binding NBS DNA” value was no more than 0.2.
With NYIL the “one-hybrid fitness for binding NBS DNA” value was no more than 0.2.
With FTDY the “one-hybrid fitness for binding NBS DNA” value was no more than 0.2.
In the case of SMWT, the “one-hybrid fitness for binding NBS DNA” value is reported as no more than 0.2.
With RKLN the “one-hybrid fitness for binding NBS DNA” value was no more than 0.2.
HFAD was tested, and the “one-hybrid fitness for binding NBS DNA” value was no more than 0.2.
With GCAL the “one-hybrid fitness for binding NBS DNA” value was no more than 0.2.
For MYAK, the “one-hybrid fitness for binding NBS DNA” value was no more than 0.2.
RYRF was tested, and the “one-hybrid fitness for binding NBS DNA” value was no more than 0.2.
In the case of GEKY, the “one-hybrid fitness for binding NBS DNA” value is reported as no more than 0.2.
In the case of RHAC, the “one-hybrid fitness for binding NBS DNA” value is reported as no more than 0.2.
For MVIT, the “one-hybrid fitness for binding NBS DNA” value was no more than 0.2.
For SKMV, the “one-hybrid fitness for binding NBS DNA” value was no more than 0.2.
With AYPY the “one-hybrid fitness for binding NBS DNA” value was no more than 0.2.
WLII was tested, and the “one-hybrid fitness for binding NBS DNA” value was no more than 0.2.
In the case of YMPL, the “one-hybrid fitness for binding NBS DNA” value is reported as no more than 0.2.
PHIF was tested, and the “one-hybrid fitness for binding NBS DNA” value was 0.293.
In the case of AVRY, the “one-hybrid fitness for binding NBS DNA” value is reported as no more than 0.2.
ICLC was tested, and the “one-hybrid fitness for binding NBS DNA” value was no more than 0.2.
For PQNS, the “one-hybrid fitness for binding NBS DNA” value was no more than 0.2.
For APLH, the “one-hybrid fitness for binding NBS DNA” value was no more than 0.2.
DDTE was tested, and the “one-hybrid fitness for binding NBS DNA” value was no more than 0.2.
For PCDV, the “one-hybrid fitness for binding NBS DNA” value was no more than 0.2.
With TIEI the “one-hybrid fitness for binding NBS DNA” value was no more than 0.2.
In the case of VCSG, the “one-hybrid fitness for binding NBS DNA” value is reported as no more than 0.2.
With TLTR the “one-hybrid fitness for binding NBS DNA” value was no more than 0.2.
VTGT was tested, and the “one-hybrid fitness for binding NBS DNA” value was no more than 0.2.
With ETTY the “one-hybrid fitness for binding NBS DNA” value was no more than 0.2.
In the case of ETTM, the “one-hybrid fitness for binding NBS DNA” value is reported as no more than 0.2.
For RMKP, the “one-hybrid fitness for binding NBS DNA” value was no more than 0.2.
In the case of AVMA, the “one-hybrid fitness for binding NBS DNA” value is reported as no more than 0.2.
ESTG was tested, and the “one-hybrid fitness for binding NBS DNA” value was no more than 0.2.
QTMS was tested, and the “one-hybrid fitness for binding NBS DNA” value was 0.463.
With HVSP the “one-hybrid fitness for binding NBS DNA” value was no more than 0.2.
For RRKR, the “one-hybrid fitness for binding NBS DNA” value was 0.929.
For RNND, the “one-hybrid fitness for binding NBS DNA” value was no more than 0.2.
For EMSA, the “one-hybrid fitness for binding NBS DNA” value was no more than 0.2.
In the case of NTDQ, the “one-hybrid fitness for binding NBS DNA” value is reported as no more than 0.2.
In the case of EGRS, the “one-hybrid fitness for binding NBS DNA” value is reported as no more than 0.2.
GKQF was tested, and the “one-hybrid fitness for binding NBS DNA” value was no more than 0.2.
With PQQD the “one-hybrid fitness for binding NBS DNA” value was no more than 0.2.
For EGPR, the “one-hybrid fitness for binding NBS DNA” value was no more than 0.2.
In the case of WESK, the “one-hybrid fitness for binding NBS DNA” value is reported as no more than 0.2.
In the case of RRSN, the “one-hybrid fitness for binding NBS DNA” value is reported as 0.356.
With KDGS the “one-hybrid fitness for binding NBS DNA” value was no more than 0.2.
FSNE was tested, and the “one-hybrid fitness for binding NBS DNA” value was no more than 0.2.
With GEWA the “one-hybrid fitness for binding NBS DNA” value was no more than 0.2.
ANAT was tested, and the “one-hybrid fitness for binding NBS DNA” value was no more than 0.2.
With VVKA the “one-hybrid fitness for binding NBS DNA” value was no more than 0.2.
HQQT was tested, and the “one-hybrid fitness for binding NBS DNA” value was no more than 0.2.
In the case of HATI, the “one-hybrid fitness for binding NBS DNA” value is reported as no more than 0.2.
GCKY was tested, and the “one-hybrid fitness for binding NBS DNA” value was no more than 0.2.
MEHR was tested, and the “one-hybrid fitness for binding NBS DNA” value was no more than 0.2.
With VVHC the “one-hybrid fitness for binding NBS DNA” value was no more than 0.2.
With CNYE the “one-hybrid fitness for binding NBS DNA” value was no more than 0.2.
For NPSS, the “one-hybrid fitness for binding NBS DNA” value was no more than 0.2.
In the case of TIAK, the “one-hybrid fitness for binding NBS DNA” value is reported as no more than 0.2.
For YMAG, the “one-hybrid fitness for binding NBS DNA” value was no more than 0.2.
With NVSC the “one-hybrid fitness for binding NBS DNA” value was no more than 0.2.
With TDYS the “one-hybrid fitness for binding NBS DNA” value was no more than 0.2.
VRSP was tested, and the “one-hybrid fitness for binding NBS DNA” value was no more than 0.2.
YCTT was tested, and the “one-hybrid fitness for binding NBS DNA” value was no more than 0.2.
For RSQG, the “one-hybrid fitness for binding NBS DNA” value was no more than 0.2.
For CTPS, the “one-hybrid fitness for binding NBS DNA” value was no more than 0.2.
QYTS was tested, and the “one-hybrid fitness for binding NBS DNA” value was 0.396.
For RTPK, the “one-hybrid fitness for binding NBS DNA” value was no more than 0.2.
For SMEL, the “one-hybrid fitness for binding NBS DNA” value was no more than 0.2.
In the case of HMSY, the “one-hybrid fitness for binding NBS DNA” value is reported as no more than 0.2.
With QSWK the “one-hybrid fitness for binding NBS DNA” value was no more than 0.2.
With RMET the “one-hybrid fitness for binding NBS DNA” value was no more than 0.2.
ACKC was tested, and the “one-hybrid fitness for binding NBS DNA” value was no more than 0.2.
SWTV was tested, and the “one-hybrid fitness for binding NBS DNA” value was no more than 0.2.
For AGGD, the “one-hybrid fitness for binding NBS DNA” value was no more than 0.2.
